In PubChem BioAssay AID485281 (National Center for Advancing Translational Sciences (NCATS), 2010):
Hit rate of the full screen: of about 350,000 compounds, about 260 (0.074%) were called active. Inconclusive results, whose numbers are uncertain, are shown with a selection of clear calls. The call rests on the fitted dose curve; in most records, active means well fitted inhibition curve with a large enough effect; inconclusive means small, poorly fitted or top-dose-only effect; inactive means no such curve, though single readings can be large or run the other way. A potency beside an inconclusive call is a rough fit, not a confirmed value.

The compounds below were run against Ferritin light chain (Equus caballus) (UniProt P02791) (assay: qHTS Assay for Identification of Novel General Anesthetics). Conditions: apoferritin/1-aminoanthracene competitive binding, fluorescence; series mostly up to 77.5 µM.
Chain of UniProt P02791 (P02791 whole entry, looked up): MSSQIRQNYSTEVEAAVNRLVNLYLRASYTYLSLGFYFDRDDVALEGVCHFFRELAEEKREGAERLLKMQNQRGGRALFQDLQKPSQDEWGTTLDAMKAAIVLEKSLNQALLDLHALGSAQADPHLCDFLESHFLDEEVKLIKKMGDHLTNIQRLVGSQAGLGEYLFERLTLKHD
How it was run: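 Concentration-response curves derived by four-parameter Hill fitting of normalized fluorescence, where compounds displaced 1-AMA from 10 uM horse apoferritin following a brief 10 min room-temperature incubation; propofol titration acted as positive control.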
Further: nearly all actives have a fitted effect of over 20% in size.
Potency means the concentration at half of the fitted maximal effect; tags describe the fitted curve by direction and shape.

Potency, inactive:
Cc1[nH]c2ccccc2c1/C=N/NC(=O)C1CC1(c1ccccc1)c1ccccc1 (configuration not stated)
CSc1ccc(C2C(C(=O)c3ccco3)=C(O)C(=O)N2c2nnc(SC)s2)cc1 (configuration not stated)

Potency, inconclusive:
Cc1ccc(NC(=O)CCN2C(=O)c3ccccc3Sc3ncccc32)c(Cl)c1 25.1 µM [inhibitor, partial curve]
Cc1cccc(C(=O)N2CCCCCC2)c1[N+](=O)[O-] 31.6 µM [inhibitor, partial curve]
N#Cc1c(NC(=O)C2C3C=CC(C3)C2C(=O)O)sc2c1CCCCC2 (configuration not stated) 28.2 µM [inhibitor, partial curve]
O=C(CSc1ccc(Cl)cc1)N1CCN(c2c(Cl)cccc2[N+](=O)[O-])CC1 31.6 µM [inhibitor, partial curve]
Clc1ccc(Cn2cnc3ccccc32)cc1 56.2 µM [inhibitor, single point]
O=C1CC(c2ccc(F)cc2)CC(O)=C1C=NCCN1CCN(C(=O)Nc2ccccc2)CC1 (configuration not stated) 39.8 µM [inhibitor, partial curve]
COc1ccc(NC(=O)C2CCCO2)cc1Cl (configuration not stated) 25.1 µM [inhibitor, partial curve]
CCC1CN(C(=O)N2CCC(C(=O)N3CCN(c4cc(C)ccc4C)CC3)CC2)c2ccccc2O1 (configuration not stated) 10 µM [inhibitor, partial curve]
Cc1cc(F)ccc1NC(=O)CCSc1nc(-c2ccco2)cc(C(F)(F)F)n1 25.1 µM [inhibitor, partial curve]
CCOC(=O)C1=C(Cc2ccc(F)cc2)C(=O)c2ccccc2C1=O 50.1 µM [inhibitor, partial curve]
CC1CCc2onc(C(=O)NCc3ccco3)c2C1 (configuration not stated) 28.2 µM [inhibitor, single point]
COc1ccc(/C([O-])=C(/C(=S)Nc2ccc(C)c(C)c2)n2c[n+](C)c3ccccc32)cc1OC 39.8 µM [inhibitor, partial curve]
CC(C)(C)OC(=O)NCCCC[C@H](NC(=O)c1[nH]cnc1C(=O)Nc1ccc(CNC(=O)OC(C)(C)C)cc1)C(=O)OC(C)(C)C 5.62 µM [inhibitor, full curve, poor fit]
Cc1nc(NC(=O)CSc2nnnn2Cc2ccccc2)sc1C 25.1 µM [inhibitor, partial curve]
CCCS(=O)(=O)N1CCCC(C(=O)Oc2ccccc2Cl)C1 (configuration not stated) 35.5 µM [inhibitor, single point]
